# Experimental data reported in the supplement of paper PMC8728848.
# This is one part of the list.
# B1: AICL (Homo sapiens), Q92478 (protein)
# chain: MMTKHKKCFIIVGVLITTNIITLIVKLTRDSQSLCPYDWIGFQNKCYYFSKEEGDWNSSKYNCSTQHADLTIIDNIEEMNFLRRYKCSSDHWIGLKMAKNRTGQWVDGATFTKSFGMRGSEGCAYLSDDGAATARCYTERKWICRKRIH
# Tests used:
# Experiment in all cases: glycan array binding signal (z-score within array); higher = stronger binding
# Settings in all cases: glycan notation: IUPAC condensed, linker removed
# [1] = molecular target: Fuc(a1-3)[Gal(b1-4)]GlcNAc
# In short: (§1)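 Negative Z-scores can be read as non-binding. The Z-score is calculated within each array and then averaged across arrays of one protein sequence at different concentrations or buffers and across linkers. Arrays, 3228 in all, were curated from the Consortium for Functional Glycomics database and kept only where the protein sequence was available.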
# [2] = molecular target: Fuc(a1-3)[Gal(b1-4)]GlcNAc(b1-4)Gal(b1-4)[Fuc(a1-3)]GlcNAc
# In short: as §1
# [3] = molecular target: Fuc(a1-3)[Gal(b1-4)]GlcNAc(b1-4)Gal(b1-4)[Fuc(a1-3)]GlcNAc(b1-4)Gal(b1-4)[Fuc(a1-3)]GlcNAc
# In short: as §1
# [4] = molecular target: Fuc(a1-3)[Gal3S(b1-4)]GlcNAc
# In short: as §1
# [5] = molecular target: Fuc(a1-3)[GalNAc(b1-4)]GlcNAc
# In short: as §1
# [6] = molecular target: Fuc(a1-4)GlcNAc
# In short: as §1
# [7] = molecular target: Fuc(b1-3)GlcNAc
# In short: as §1
# [8] = molecular target: Gal(a1-2)Gal
# In short: as §1
# [9] = molecular target: Gal(a1-3)Gal
# In short: as §1
# [10] = molecular target: Gal(a1-3)Gal(b1-3)GlcNAc
# In short: as §1
# [11] = molecular target: Gal(a1-3)Gal(b1-4)Glc
# In short: as §1
# [12] = molecular target: Gal(a1-3)Gal(b1-4)GlcNAc
# In short: as §1
# [13] = molecular target: Gal(a1-3)Gal(b1-4)[Fuc(a1-3)]GlcNAc
# In short: as §1
# [14] = molecular target: Gal(a1-3)GalNAc
# In short: as §1
# [15] = molecular target: Gal(a1-3)[Gal(a1-4)]Gal(b1-4)GlcNAc
# In short: as §1
# [16] = molecular target: Gal(a1-4)Gal(b1-4)Glc
# In short: as §1
# [17] = molecular target: Gal(a1-4)Gal(b1-4)GlcNAc
# In short: as §1
# [18] = molecular target: Gal(a1-4)GlcNAc
# In short: as §1
# [19] = molecular target: Gal(a1-6)Glc
# In short: as §1
# [20] = molecular target: Gal(b1-2)Gal
# In short: as §1
# [21] = molecular target: Gal(b1-3)Gal
# In short: as §1
# [22] = molecular target: Gal(b1-3)GalNAc
# In short: as §1
# [23] = molecular target: Gal(b1-3)GalNAc(b1-3)Gal(a1-4)Gal(b1-4)Glc
# In short: as §1
# [24] = molecular target: Gal(b1-3)GalNAc(b1-4)Gal(b1-4)Glc
# In short: as §1
# [25] = molecular target: Gal(b1-3)GalNAc(b1-4)[Neu5Ac(a2-3)]Gal(b1-4)Glc
# In short: as §1
# [26] = molecular target: Gal(b1-3)GlcNAc
# In short: as §1
# [27] = molecular target: Gal(b1-3)GlcNAc(b1-3)Gal(b1-4)Glc
# In short: as §1
# [28] = molecular target: Gal(b1-3)GlcNAc(b1-3)Gal(b1-4)GlcNAc
# In short: as §1
# [29] = molecular target: Gal(b1-3)[Fuc(a1-4)]GlcNAc
# In short: as §1
# [30] = molecular target: Gal(b1-3)[Fuc(a1-4)]GlcNAc(b1-3)Gal(b1-4)GlcNAc
# In short: as §1
# [31] = molecular target: Gal(b1-3)[Fuc(a1-4)]GlcNAc(b1-3)Gal(b1-4)[Fuc(a1-3)]GlcNAc
# In short: as §1
# [32] = molecular target: Gal(b1-3)[GlcNAc(b1-6)]GalNAc
# In short: as §1
# [33] = molecular target: Gal(b1-3)[Neu5Ac(a2-6)]GalNAc
# In short: as §1
# [34] = molecular target: Gal(b1-3)[Neu5Ac(a2-6)]GlcNAc(b1-6)Gal(b1-4)Glc
# In short: as §1
# [35] = molecular target: Gal(b1-3)[Neu5Ac(b2-6)]GalNAc
# In short: as §1
# [36] = molecular target: Gal(b1-4)GalNAc(a1-3)[Fuc(a1-2)]Gal(b1-4)GlcNAc
# In short: as §1
# [37] = molecular target: Gal(b1-4)GalNAc(b1-3)[Fuc(a1-2)]Gal(b1-4)GlcNAc
# In short: as §1
# [38] = molecular target: Gal(b1-4)Glc
# In short: as §1
# [39] = molecular target: Gal(b1-4)Glc6S
# In short: as §1
# [40] = molecular target: Gal(b1-4)GlcNAc
# In short: as §1
# [41] = molecular target: Gal(b1-4)GlcNAc(b1-2)Man(a1-3)[Gal(b1-4)GlcNAc(b1-2)Man(a1-6)]Man(b1-4)GlcNAc(b1-4)GlcNAc
# In short: as §1
binder,measurement,setting,value
B1,glycan array binding signal (z-score),[1],-0.169
same,glycan array binding signal (z-score),[2],0.531
same,glycan array binding signal (z-score),[3],-0.269
same,glycan array binding signal (z-score),[4],-0.352
same,glycan array binding signal (z-score),[5],-0.23
same,glycan array binding signal (z-score),[6],-0.412
same,glycan array binding signal (z-score),[7],-0.469
same,glycan array binding signal (z-score),[8],0.211
same,glycan array binding signal (z-score),[9],-0.224
same,glycan array binding signal (z-score),[10],-0.464
same,glycan array binding signal (z-score),[11],0.176
same,glycan array binding signal (z-score),[12],-0.382
same,glycan array binding signal (z-score),[13],-0.431
same,glycan array binding signal (z-score),[14],0.747
same,glycan array binding signal (z-score),[15],-0.447
same,glycan array binding signal (z-score),[16],0.014
same,glycan array binding signal (z-score),[17],-0.258
same,glycan array binding signal (z-score),[18],-0.349
same,glycan array binding signal (z-score),[19],0.384
same,glycan array binding signal (z-score),[20],-0.391
same,glycan array binding signal (z-score),[21],-0.314
same,glycan array binding signal (z-score),[22],-0.313
same,glycan array binding signal (z-score),[23],-0.112
same,glycan array binding signal (z-score),[24],-0.243
same,glycan array binding signal (z-score),[25],-0.397
same,glycan array binding signal (z-score),[26],-0.41
same,glycan array binding signal (z-score),[27],-0.388
same,glycan array binding signal (z-score),[28],-0.39
same,glycan array binding signal (z-score),[29],-0.382
same,glycan array binding signal (z-score),[30],-0.356
same,glycan array binding signal (z-score),[31],-0.259
same,glycan array binding signal (z-score),[32],-0.354
same,glycan array binding signal (z-score),[33],-0.085
same,glycan array binding signal (z-score),[34],-0.359
same,glycan array binding signal (z-score),[35],-0.47
same,glycan array binding signal (z-score),[36],-0.399
same,glycan array binding signal (z-score),[37],-0.438
same,glycan array binding signal (z-score),[38],-0.297
same,glycan array binding signal (z-score),[39],-0.236
same,glycan array binding signal (z-score),[40],-0.506
same,glycan array binding signal (z-score),[41],-0.438
